Experimental data as given in PubChem BioAssay AID1030 (National Center for Advancing Translational Sciences (NCATS), 2008).
Out of some 220,000 compounds screened, about 16,000 (7.3%) were called active. This list was built around the results that the source calls inconclusive (neither active nor inactive); the mix of calls is not that of the screen. Calls come from the whole dose curve; as a rule, active = well fitted inhibition curve with a large enough effect (not every such curve was filed as active); inconclusive = small, poorly fitted or top-dose-only effect, or another doubt; inactive = no such curve, though single readings can be large or run the other way. Potencies beside an inconclusive call are fits to weak or partial responses and may not hold up.

These compounds were tested against Aldehyde dehydrogenase 1A1 (Homo sapiens) (UniProt P00352) (assay: qHTS Assay for Inhibitors of Aldehyde Dehydrogenase 1 (ALDH1A1)). Settings: Purified ALDH1A1, NADH fluorescence, propionaldehyde substrate; series mostly up to 75.3 µM; activity, negative = inhibition: at the top concentration.
Potency is the fitted concentration of half-maximal effect; tags give direction and shape of the fitted curve.
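Throughout, for activity, negative = inhibition: plate controls were no enzyme wells and a reference inhibitor.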

Sequence of UniProt P00352 (P00352 whole entry, looked up): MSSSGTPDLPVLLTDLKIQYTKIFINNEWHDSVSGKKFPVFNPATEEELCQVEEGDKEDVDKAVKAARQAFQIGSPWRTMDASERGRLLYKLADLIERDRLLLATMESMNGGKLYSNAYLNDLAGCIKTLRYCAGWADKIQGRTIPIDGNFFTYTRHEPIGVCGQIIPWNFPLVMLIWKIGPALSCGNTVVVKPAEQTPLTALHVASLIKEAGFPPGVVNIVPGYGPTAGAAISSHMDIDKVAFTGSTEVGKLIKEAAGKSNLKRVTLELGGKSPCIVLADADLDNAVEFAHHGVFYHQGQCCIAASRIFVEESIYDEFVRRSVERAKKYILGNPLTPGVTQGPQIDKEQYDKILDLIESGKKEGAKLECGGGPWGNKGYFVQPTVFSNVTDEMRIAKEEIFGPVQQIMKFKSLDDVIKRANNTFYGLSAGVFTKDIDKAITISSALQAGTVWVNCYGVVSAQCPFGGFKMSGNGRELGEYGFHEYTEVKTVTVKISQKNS

Potency, active:
O=C(CCN1CCC(c2ccccc2)C1)c1ccc2c(c1)OCCO2 (configuration not stated) 0.112 µM
COC(=O)/C=C/C(=O)Nc1ccc(O)c(Cl)c1 12.6 µM
COc1cc(/C=C/C(=O)c2ccc(NS(=O)(=O)c3ccc(C)cc3)cc2)cc(OC)c1O 22.4 µM

Potency, inconclusive:
CCN1CCc2c(sc(NC(=S)NC(=O)c3ccccc3)c2C#N)C1 25.1 µM [inhibitor, single point]
CCOc1c(Cl)cc(C(=O)Nc2ccccc2-c2ccccc2)cc1Cl 31.6 µM [inhibitor, partial curve]
Cn1c(=O)oc2cc(S(=O)(=O)N3CCCC(C(=O)N4CC=C(c5ccccc5)CC4)C3)ccc21 (configuration not stated) 20 µM [inhibitor, single point]
CCOC(=O)c1cc2c(ccn2C)n1CC(=O)N1CCN(c2ccccc2)CC1 35.5 µM [inhibitor, single point]
CCC1CCc2c(sc3nc(SCC(=O)NCc4ccco4)n(-c4ccccc4)c(=O)c23)C1 (configuration not stated) 31.6 µM [inhibitor, partial curve]
CCN(CC)S(=O)(=O)c1ccc(C(=O)OCCN2C(=O)CCC2=O)cc1 44.7 µM [inhibitor, single point]
C=CCn1c(N)c(S(=O)(=O)c2cccs2)c2nc3ccccc3nc21 31.6 µM [inhibitor, partial curve]
CN(C)S(=O)(=O)c1cc(NC(=O)COC(=O)CCSc2ccc(Cl)cc2)ccc1Cl 17.8 µM [inhibitor, partial curve]
Cc1ccc(S(=O)(=O)Nc2ccc(C(=O)Nc3ccncc3)cc2)cc1 15.8 µM [inhibitor, partial curve]
Cc1ccc(-n2nnnc2SCC(=O)NNC(=O)c2ccco2)c(C)c1 39.8 µM [inhibitor, single point]
Cc1ccc(S(=O)(=O)c2ccc(Cl)cc2)cc1S(=O)(=O)N1CCOCC1 15.8 µM [inhibitor, partial curve]
COc1ccc(CN2CN(C(C)C)CSC2=S)cc1 35.5 µM [inhibitor, single point]
Cc1[nH]nc2c1-c1nc3ccccc3nc1C(C)(C)C2 25.1 µM [inhibitor, partial curve]
O=C(Nc1ccccc1)/C(=C/c1ccccc1)c1ccccc1 28.2 µM [inhibitor, single point]
O=[N+]([O-])c1ccc(-n2cccn2)c(-c2nn[nH]n2)c1 28.2 µM [inhibitor, single point]
COc1ccc(-n2cc(CNC3CCN(C)CC3)c(-c3cccc(F)c3)n2)cc1 28.2 µM [inhibitor, single point]
O=C(NC(=S)N1CCN(c2ccc([N+](=O)[O-])cc2)CC1)c1ccco1 39.8 µM [inhibitor, single point]
CSc1ccc(/C=C(/NC(=O)c2ccc(C)cc2)C(=O)Nc2cccc(F)c2)cc1 39.8 µM [inhibitor, single point]
Nc1c(NCCN2CCCCC2)c2ccccc2oc1=O 17.8 µM [inhibitor, partial curve]
COc1ccc(/C=N/NC(=O)CCn2cnc(-c3ccccc3)c2-c2ccccc2)cc1 28.2 µM [inhibitor, single point]
Cc1[nH]c2ccccc2c1C(=O)CN1CCN(C/C=C/c2ccccc2)CC1 39.8 µM [inhibitor, single point]
CCOC(=O)N1CCN(CCC(=O)Nc2ccc(C)c(Br)c2)CC1 20 µM [inhibitor, single point]
COc1ccc(OC)c(-c2cc(C(=O)N3CCCc4ccccc43)no2)c1 12.6 µM [inhibitor, partial curve]
CCn1nc(C)cc1C(=O)Sc1cccc(Br)c1 39.8 µM [inhibitor, single point]
CCNc1ccc(N=Nc2c(C)n(C)n(-c3ccccc3)c2=O)cc1 0.708 µM [inhibitor, partial curve, poor fit]
N#C/C=C1\Sc2ccccc2C(=O)N1CC(=O)N1CCN(S(=O)(=O)c2ccccc2)CC1 20 µM [inhibitor, single point]
CCOc1ccc(C(=O)/C=C/c2cc(OC)c(OC)c(OC)c2)cc1 39.8 µM [inhibitor, single point]
COc1cc(-c2nc(-c3cccc(C)c3)no2)cc(OC)c1OC 25.1 µM [inhibitor, single point]
O=C(Nc1ccc(Cl)cc1)Nc1cc(S(=O)(=O)N2CCOCC2)ccc1N1CCCC1 35.5 µM [inhibitor, partial curve]
c1ccc(Cn2nnc3cnccc32)cc1 39.8 µM [inhibitor, single point]
COc1ccc(C2CC(c3cccs3)=NN2c2nc(-c3ccccc3)cs2)cc1OC (configuration not stated) 23.8 µM [inhibitor, partial curve]
CC1=NN(C(=O)COc2ccc(C)c(C)c2)C(O)(c2ccccc2)C1 (configuration not stated) 14.1 µM [inhibitor, single point]
COc1cccc(NC(=O)c2ccc(-c3ccccc3[N+](=O)[O-])o2)c1 39.8 µM [inhibitor, single point]
CC(C)C(NC(=O)C1CCC(C(C)(C)C)CC1)C(=O)NCc1cccnc1 (configuration not stated) 44.7 µM [inhibitor, single point]
CCOc1cc(-c2nc3ccccn3c2NCC2CCCO2)ccc1O (configuration not stated) 25.1 µM [inhibitor, partial curve]
Cc1cc(C)n(C(=O)c2ccc([N+](=O)[O-])c(Cl)c2)n1 39.8 µM [inhibitor, single point]
O=C1OCCC1Sc1nnc(-c2ccc(O)cc2)o1 (configuration not stated) 39.8 µM [inhibitor, partial curve, poor fit]
O=C(O)CC1(CC(=O)NCc2ccc(-c3cccs3)cc2)CCCCC1 15.8 µM [inhibitor, partial curve]
COC(=O)Nc1ccc(=O)n(Cc2c(Cl)cccc2Cl)c1 28.2 µM [inhibitor, partial curve]
COc1ccccc1C(=O)NCCCNc1ccc([N+](=O)[O-])cc1 28.2 µM [inhibitor, single point]
COc1ccccc1Nc1nc(N)nc(CN2CCN(c3ccccc3)CC2)n1 39.8 µM [inhibitor, single point]
CCc1nc2sc3ccccc3c(=O)c2c(=O)n1Cc1ccco1 31.6 µM [inhibitor, single point]

activity, negative = inhibition, inactive:
Cc1nc(SCC(=O)Nn2c(-c3ccccc3)nc3ccccc3c2=O)n[nH]1 -6.2%
COc1ccc(C2C(C(=O)c3ccco3)=C(O)C(=O)N2CCc2ccccc2)cc1OC (configuration not stated) -5.03%
CCOC(=O)c1sc(NCCNc2nc(C)c(C(=O)OCC)s2)nc1C -13.4%
COc1ccc(CCNC(=O)CCCn2nc(C)c([N+](=O)[O-])c2C)cc1OC -5.84%
CCn1c(SCC(=O)Nc2ccccc2OC)nc2ccccc2c1=O -5.52%
Cc1cc(N2CCCCC2)nc2c(C)cccc12 -12.2%
CCCCN(C)CCn1c(=S)[nH]c2ncccc2c1=O -7.89%
Cn1c(NCCc2ccccc2)cc(=O)n(C)c1=O 8.35%
COc1ccc(N2CCN(c3nc(Cl)nc(N4CCOCC4)n3)CC2)cc1 -0.215%
OC[C@H]1O[C@H](n2cnc3c(NC4CCCC4)nc(Cl)nc32)[C@@H](O)[C@@H]1O -1.85%
O=C(Nc1cc(Sc2nc3ccccc3s2)cc([N+](=O)[O-])c1)c1cccc(F)c1F 4.32%
CCc1ccccc1N1C(=O)C2C3CC(=O)C(c4ccccc43)C2C1=O (configuration not stated) 2.8%
CN1CCN(S(=O)(=O)c2ccc(NC(=O)C3CCCCC3)cc2)CC1 -4.46%
Cc1cc(C)cc(OCC(=O)Nc2ccc(N3CCCC3)cc2)c1 -12%
O=C(Cc1coc2cc3c(cc12)CCC3)NC1CCCCCCC1 -0.252%
CCOC(=O)NC(Nc1sc2c(c1C(N)=O)CCCC2)(C(=O)OCC)C(F)(F)F (configuration not stated) -5.78%
COCc1cc(=O)[nH]c(Sc2c(-c3ccccc3)c3ccc(Cl)cc3[nH]c2=O)n1 -12.5%
CCC(C)(C)NC(=O)CCCSc1nc2ccccc2s1 -5.53%
C=COCCNC(=O)Nc1ccc(Cl)c(Cl)c1 -0.794%
CC(C)C[C@@H](CC(=O)N[C@@H](CCC(=O)O)CC(=O)O)NC(=O)[C@@H]1CCCC[C@H]1NC(=O)C[C@@H](NC(=O)C[C@H](CO)NC(=O)[C@@H]1CNCC[C@H]1N)C(C)C 0.214%
COc1ccc(OC)c(NC(=S)N2CCC(C(O)(c3ccccc3)c3ccccc3)CC2)c1 0.376%
COc1ccccc1C(=O)NCC(=O)N/N=C/c1ccc([N+](=O)[O-])cc1 9.89%
CC1=NN(C(=O)Cn2nc([N+](=O)[O-])c(Br)c2C)C(O)(C(F)(F)F)C1 (configuration not stated) 9.46%
CC1=C(C)CC(C(=O)NNC(=O)c2csc(C)c2C)C(C(=O)O)C1 (configuration not stated) 12%
Cn1c(Cn2c(=O)sc3ccccc32)nnc1SCC(=O)N1CCCC1 3.77%
COc1ccc2nc(NC(=O)CSc3nc(SC)ns3)sc2c1 -13.4%
CC1CC(C)CN(S(=O)(=O)c2ccc(C(=O)OCC(=O)NCCN3C(=O)CSC3=O)cc2)C1 (configuration not stated) 2.22%
